Measured values published in the supplement of paper PMC12217912.
The other results are listed elsewhere or left out. Sequences were assembled here from the parent chain. Values near 0.05 are background.

B1: TEV protease; numbered along this chain (parent)
chain: MGESLFKGPRDYNPISSSICHLTNESDGHTTSLYGIGFGPFIITNKHLFRRNNGTLVVQSLHGVFKVKDTTTLQQHLVDGRDMIIIRMPKDFPPFPQKLKFREPQREERICLVTTNFQTKSMSSMVSDTSCTFPSGDGIFWKHWIQTKDGQCGSPLVSTRDGFIVGIHSASNFTNTNNYFTSVPKNFMELLTNQEAQQWVSGWRLNADSVLWGGHKVFMVKPEEPFQPVKEATQL

Variants of: B1
Assay: raw area under fraction-flipped curve 0-4 h after induction (AUC4h, not background-subtracted), DNA-recorder readout of cleavage of the substrate (dimensionless); higher = more cleavage of the substrate by the protease variant
Details: temperature: 34 °C; time window: 0-4 h after rhamnose induction
Protocol: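 In vivo DNA recorder in E. coli TOP10(DE3) ΔrhaA at 34 °C. Each TEVp single-site mutant (parent TEVp 0) is paired with a single-site variant of the 7-mer TEVs (canonical ENLYFQ|S). The substrate sits between flexible linkers in a Bxb1-sfGFP-TEVs-SsrA fusion, so cleavage stabilises Bxb1 and speeds flipping of a recombination array, read by NGS. The value is the raw area under the fraction-flipped curve over 0-4 h after rhamnose induction (AUC4h), with ≥20 reads per time point. It is not background-subtracted; inactive controls average about 0.047.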
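Note: Bxb1 expression induced with 0.2% (w/v) L-rhamnose at OD600 near 0.5, cultures sampled hourly, flipped fraction per protease–substrate barcode pair counted by paired-end Illumina sequencing.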

Variant | area with substrate ANLYFQS | area with substrate CNLYFQS | area with substrate GNLYFQS | area with substrate HNLYFQS | area with substrate KNLYFQS | area with substrate LNLYFQS | area with substrate MNLYFQS | area with substrate PNLYFQS | area with substrate SNLYFQS | area with substrate TNLYFQS | area with substrate VNLYFQS | area with substrate WNLYFQS | area with substrate FNLYFQS | area with substrate INLYFQS | area with substrate NNLYFQS | area with substrate RNLYFQS | area with substrate YNLYFQS | area with substrate DNLYFQS
L56P | 0.0472 | 0.0443 | 0.0451 | 0.0377 | 0.0302 | 0.0545 | 0.0514 | 0.0471 | 0.0452 | 0.0389 | 0.0427 | 0.0606 |  |  |  |  |  | 
L56S | 0.0455 | 0.0394 |  | 0.0483 | 0.033 | 0.0556 | 0.0391 | 0.062 |  | 0.0463 |  | 0.0539 | 0.0381 | 0.0598 | 0.0307 | 0.0257 | 0.0368 | 
L56W | 0.0487 | 0.0566 | 0.0667 | 0.0518 | 0.0589 | 0.0645 | 0.0616 |  | 0.0556 | 0.0713 | 0.0414 | 0.0537 | 0.0593 | 0.063 | 0.052 |  |  | 0.0566
V64C | 0.0634 | 0.0685 |  | 0.0433 | 0.0732 | 0.0523 | 0.0699 |  | 0.0685 | 0.0968 |  | 0.0671 |  | 0.056 | 0.0576 |  | 0.0653 | 0.0881
V64K | 0.0555 | 0.0765 |  | 0.0686 | 0.0599 | 0.0524 | 0.0823 |  | 0.0675 | 0.0601 | 0.0514 | 0.0614 | 0.03 | 0.0582 |  |  | 0.0711 | 0.0692
L112C | 0.0617 | 0.0454 | 0.0683 | 0.0466 | 0.0885 | 0.0714 |  | 0.0665 | 0.0617 | 0.0531 |  | 0.0576 | 0.0629 |  | 0.0691 |  | 0.0659 | 0.0762
L112I | 0.0318 | 0.0446 |  | 0.0617 | 0.0415 | 0.0452 | 0.0874 | 0.0861 | 0.0495 | 0.0666 | 0.0667 | 0.0586 | 0.0386 | 0.0584 | 0.0896 | 0.0599 | 0.0702 | 
L112F | 0.0623 | 0.061 |  | 0.0644 |  | 0.0442 |  |  | 0.0513 | 0.0542 |  | 0.0612 |  | 0.0599 |  |  | 0.0567 | 0.0701
L112H | 0.0573 | 0.0652 | 0.0511 | 0.0519 | 0.0648 | 0.0599 |  | 0.0569 |  | 0.06 | 0.076 | 0.0625 | 0.0598 | 0.0521 | 0.0579 | 0.0467 | 0.0445 | 
T44A | 0.0601 | 0.063 | 0.0625 | 0.0597 | 0.0646 | 0.0612 |  | 0.0585 | 0.0322 | 0.0667 | 0.0517 | 0.0587 | 0.0536 | 0.0517 | 0.0599 | 0.0556 | 0.0579 | 0.0684
T44F | 0.0506 | 0.0521 | 0.0451 | 0.0357 | 0.0685 | 0.0491 |  | 0.0586 |  | 0.0555 |  | 0.0651 | 0.0251 | 0.0583 | 0.0516 |  | 0.0488 | 0.059
R81T | 0.0451 | 0.0641 | 0.0674 |  | 0.0674 | 0.0679 | 0.0608 | 0.0639 | 0.0608 | 0.0534 |  | 0.0581 | 0.0379 | 0.054 |  |  | 0.0574 | 0.0616
R81N | 0.0764 | 0.0611 |  | 0.0863 | 0.0617 |  |  | 0.0649 |  | 0.0491 |  |  |  | 0.0509 | 0.069 |  |  | 0.0695
